The BET-seq Pho4 binding data (Le et al. 2018)
The other results are listed elsewhere or left out. Values were computed here from the reads of four pooled replicates and scatter widely.

What follows are sequences tested against T1, Pho4 (S. cerevisiae) (UniProt P07270) (assay: relative binding free energy (BET-seq); higher = weaker binding). Conditions: reference: library average.
T1 sequence: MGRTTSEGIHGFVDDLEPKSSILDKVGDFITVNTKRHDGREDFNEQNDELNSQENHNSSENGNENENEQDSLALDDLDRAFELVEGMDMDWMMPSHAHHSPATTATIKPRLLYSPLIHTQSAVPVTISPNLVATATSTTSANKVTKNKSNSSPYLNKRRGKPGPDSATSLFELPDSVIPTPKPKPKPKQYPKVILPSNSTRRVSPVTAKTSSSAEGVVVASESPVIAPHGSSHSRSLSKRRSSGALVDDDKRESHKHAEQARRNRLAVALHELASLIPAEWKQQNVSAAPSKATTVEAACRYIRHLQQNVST

For GGGGCCACGTGAGTTG, which “relative binding free energy” value is on record?
The value was 0.15 kcal/mol.

With CGTGTCACGTGGGCTG as the sequence, how does the “relative binding free energy” value read?
The value was -0.06 kcal/mol.

How did the “relative binding free energy” value turn out when TCGAACACGTGGGGGT was run?
The value was -0.08 kcal/mol.

How did the “relative binding free energy” value turn out when GGGTGCACGTGCGCTT was run?
The value was -0.24 kcal/mol.

How did the “relative binding free energy” value turn out when TGACACACGTGGGGTT was run?
Its value is -0.12 kcal/mol.

Which “relative binding free energy” value does the source give for GGAGGCACGTGACGTT here?
The value was 0.13 kcal/mol.

With GGCATCACGTGGTTGG as the sequence, how does the “relative binding free energy” value read?
Its value is 0.14 kcal/mol.

How did the “relative binding free energy” value turn out when AATGTCACGTGAGCTG was run?
The value was 0.32 kcal/mol.

For TTATTCACGTGGGCAT, which “relative binding free energy” value is on record?
Its value is 0.1 kcal/mol.

With TTAAGCACGTGTAGCT as the sequence, how does the “relative binding free energy” value read?
The value was 0.04 kcal/mol.

For GGTGACACGTGGTCTG, which “relative binding free energy” value is on record?
The value was 0.04 kcal/mol.

For GCAGGCACGTGTAGAG, which “relative binding free energy” value is on record?
Its value is 0.03 kcal/mol.

For TTCTGCACGTGTATCG, which “relative binding free energy” value is on record?
The value was 0.08 kcal/mol.

How did the “relative binding free energy” value turn out when GGGTGCACGTGTAATG was run?
Its value is 0.13 kcal/mol.

How did the “relative binding free energy” value turn out when GTATTCACGTGAACGT was run?
The value was 0.25 kcal/mol.

For TGACTCACGTGGATTG, which “relative binding free energy” value is on record?
The value was 0.25 kcal/mol.

With TTGTACACGTGTATAC as the sequence, how does the “relative binding free energy” value read?
The value was 0.22 kcal/mol.

AGGCACACGTGGGAGG was tested. Which “relative binding free energy” value did it give?
The value was -0.14 kcal/mol.

How did the “relative binding free energy” value turn out when AATCGCACGTGATTTG was run?
Its value is 0.15 kcal/mol.

With ATGTACACGTGTGTCG as the sequence, how does the “relative binding free energy” value read?
The value was 0.05 kcal/mol.

With AGGGGCACGTGCAAGT as the sequence, how does the “relative binding free energy” value read?
The value was -0.29 kcal/mol.

Which “relative binding free energy” value does the source give for GGATACACGTGCTGGT here?
Its value is 0.11 kcal/mol.

How did the “relative binding free energy” value turn out when AGTAGCACGTGGGGTC was run?
Its value is -0.22 kcal/mol.

For AGTAACACGTGTAGGG, which “relative binding free energy” value is on record?
The value was 0.18 kcal/mol.

TAGTACACGTGGTGAG was tested. Which “relative binding free energy” value did it give?
Its value is -0.05 kcal/mol.

Which “relative binding free energy” value does the source give for ATGTACACGTGTTAAT here?
Its value is 0.12 kcal/mol.

Which “relative binding free energy” value does the source give for TGAGTCACGTGAGAGA here?
The value was 0.32 kcal/mol.

For AATGTCACGTGGGAGA, which “relative binding free energy” value is on record?
Its value is 0.03 kcal/mol.

Which “relative binding free energy” value does the source give for TGGGGCACGTGGCGTA here?
Its value is -0.29 kcal/mol.

Which “relative binding free energy” value does the source give for ATATGCACGTGTCGGG here?
Its value is -0.16 kcal/mol.

How did the “relative binding free energy” value turn out when GGATTCACGTGTGACG was run?
Its value is 0.25 kcal/mol.

With GGGAGCACGTGTATGG as the sequence, how does the “relative binding free energy” value read?
Its value is 0 kcal/mol.

How did the “relative binding free energy” value turn out when AAAGTCACGTGTCTTG was run?
The value was 0.2 kcal/mol.

For TAGGGCACGTGGAGAG, which “relative binding free energy” value is on record?
Its value is -0.09 kcal/mol.

For GGGAGCACGTGTTAGC, which “relative binding free energy” value is on record?
Its value is -0.08 kcal/mol.

For GTGATCACGTGATGTG, which “relative binding free energy” value is on record?
Its value is 0.25 kcal/mol.

Which “relative binding free energy” value does the source give for GTACCCACGTGGTGGG here?
Its value is -0.05 kcal/mol.

AGGATCACGTGATTTT was tested. Which “relative binding free energy” value did it give?
Its value is 0.29 kcal/mol.

Which “relative binding free energy” value does the source give for CAGTACACGTGTGGTA here?
Its value is 0.1 kcal/mol.

With TACGGCACGTGTTTCT as the sequence, how does the “relative binding free energy” value read?
The value was 0.13 kcal/mol.

How did the “relative binding free energy” value turn out when GGTGGCACGTGCGTGG was run?
The value was -0.11 kcal/mol.

For TTTTACACGTGGACTG, which “relative binding free energy” value is on record?
Its value is 0.22 kcal/mol.

For TTAGGCACGTGACGCT, which “relative binding free energy” value is on record?
Its value is 0 kcal/mol.

How did the “relative binding free energy” value turn out when CCGTGCACGTGTGTGG was run?
Its value is -0.21 kcal/mol.

With TAAGTCACGTGCGGGT as the sequence, how does the “relative binding free energy” value read?
The value was 0.1 kcal/mol.

Which “relative binding free energy” value does the source give for GGTAACACGTGGGTCG here?
The value was -0.17 kcal/mol.

TTTATCACGTGTAAGC was tested. Which “relative binding free energy” value did it give?
The value was 0.29 kcal/mol.

With TATCGCACGTGTATGG as the sequence, how does the “relative binding free energy” value read?
Its value is -0.08 kcal/mol.

GGCGTCACGTGTGTCT was tested. Which “relative binding free energy” value did it give?
The value was 0.12 kcal/mol.

For TTGTACACGTGGTGTG, which “relative binding free energy” value is on record?
Its value is 0 kcal/mol.

For TAATCCACGTGGTGGG, which “relative binding free energy” value is on record?
Its value is -0.12 kcal/mol.

How did the “relative binding free energy” value turn out when CGTTTCACGTGTGGGA was run?
The value was 0.2 kcal/mol.

How did the “relative binding free energy” value turn out when CTGGCCACGTGTGGGA was run?
The value was 0 kcal/mol.

How did the “relative binding free energy” value turn out when CTGAACACGTGGGTGT was run?
The value was 0.03 kcal/mol.

For GTTAGCACGTGGATCG, which “relative binding free energy” value is on record?
Its value is -0.07 kcal/mol.

For TGGGACACGTGATTGG, which “relative binding free energy” value is on record?
The value was 0.21 kcal/mol.

How did the “relative binding free energy” value turn out when GGTGTCACGTGTTCGG was run?
Its value is 0.1 kcal/mol.

CTTATCACGTGATGGT was tested. Which “relative binding free energy” value did it give?
Its value is 0.33 kcal/mol.

AGGGTCACGTGCATTT was tested. Which “relative binding free energy” value did it give?
The value was 0.05 kcal/mol.

How did the “relative binding free energy” value turn out when TAGTTCACGTGTCAGT was run?
The value was 0.21 kcal/mol.

For TGAGGCACGTGTGTCA, which “relative binding free energy” value is on record?
Its value is 0.11 kcal/mol.

With TCGTGCACGTGGTTTG as the sequence, how does the “relative binding free energy” value read?
Its value is -0.07 kcal/mol.

TTTGTCACGTGGCATG was tested. Which “relative binding free energy” value did it give?
The value was 0.05 kcal/mol.
